Results taken from PubChem BioAssay AID1347165 (National Center for Advancing Translational Sciences (NCATS), 2019).
Out of some 220,000 compounds screened, about 5,700 (2.6%) were called active. Inconclusive results, whose numbers are uncertain, are shown with a selection of clear calls. The call rests on the fitted dose curve; in most records, active means well fitted inhibition curve with a large enough effect; inconclusive means small, poorly fitted or top-dose-only effect; inactive means no such curve, though single readings can be large or run the other way. Potencies beside an inconclusive call are fits to weak or partial responses and may not hold up.

Target: Lysine-specific demethylase 5B (Homo sapiens) (UniProt Q9UGL1)
Assay: Primary screen for KDM5B Histone Demethylases FDH-coupled qHTS; further: nearly all actives have a fitted effect of over 70% in size; on activity change, negative = inhibition: 0% is about no effect
Conditions: FDH-coupled NADH fluorescence (FDH is formaldehyde dehydrogenase); activity change, negative = inhibition: at 57.7 µM (top of the series) unless noted
Outline: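 Inhibition is measured as reduced NADH fluorescence generation from FDH coupling to formaldehyde release. Truncated KDM5BΔAP at 200 nM final acts on H3K4me3 peptide (12.5 µM in substrate mix) in pH 7.5 HEPES buffer with Tween-20, 30 min, room temperature.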
Potency means the concentration at half of the fitted maximal effect; tags describe the fitted curve by direction and shape.

Chain of UniProt Q9UGL1 (Q9UGL1 whole entry, looked up): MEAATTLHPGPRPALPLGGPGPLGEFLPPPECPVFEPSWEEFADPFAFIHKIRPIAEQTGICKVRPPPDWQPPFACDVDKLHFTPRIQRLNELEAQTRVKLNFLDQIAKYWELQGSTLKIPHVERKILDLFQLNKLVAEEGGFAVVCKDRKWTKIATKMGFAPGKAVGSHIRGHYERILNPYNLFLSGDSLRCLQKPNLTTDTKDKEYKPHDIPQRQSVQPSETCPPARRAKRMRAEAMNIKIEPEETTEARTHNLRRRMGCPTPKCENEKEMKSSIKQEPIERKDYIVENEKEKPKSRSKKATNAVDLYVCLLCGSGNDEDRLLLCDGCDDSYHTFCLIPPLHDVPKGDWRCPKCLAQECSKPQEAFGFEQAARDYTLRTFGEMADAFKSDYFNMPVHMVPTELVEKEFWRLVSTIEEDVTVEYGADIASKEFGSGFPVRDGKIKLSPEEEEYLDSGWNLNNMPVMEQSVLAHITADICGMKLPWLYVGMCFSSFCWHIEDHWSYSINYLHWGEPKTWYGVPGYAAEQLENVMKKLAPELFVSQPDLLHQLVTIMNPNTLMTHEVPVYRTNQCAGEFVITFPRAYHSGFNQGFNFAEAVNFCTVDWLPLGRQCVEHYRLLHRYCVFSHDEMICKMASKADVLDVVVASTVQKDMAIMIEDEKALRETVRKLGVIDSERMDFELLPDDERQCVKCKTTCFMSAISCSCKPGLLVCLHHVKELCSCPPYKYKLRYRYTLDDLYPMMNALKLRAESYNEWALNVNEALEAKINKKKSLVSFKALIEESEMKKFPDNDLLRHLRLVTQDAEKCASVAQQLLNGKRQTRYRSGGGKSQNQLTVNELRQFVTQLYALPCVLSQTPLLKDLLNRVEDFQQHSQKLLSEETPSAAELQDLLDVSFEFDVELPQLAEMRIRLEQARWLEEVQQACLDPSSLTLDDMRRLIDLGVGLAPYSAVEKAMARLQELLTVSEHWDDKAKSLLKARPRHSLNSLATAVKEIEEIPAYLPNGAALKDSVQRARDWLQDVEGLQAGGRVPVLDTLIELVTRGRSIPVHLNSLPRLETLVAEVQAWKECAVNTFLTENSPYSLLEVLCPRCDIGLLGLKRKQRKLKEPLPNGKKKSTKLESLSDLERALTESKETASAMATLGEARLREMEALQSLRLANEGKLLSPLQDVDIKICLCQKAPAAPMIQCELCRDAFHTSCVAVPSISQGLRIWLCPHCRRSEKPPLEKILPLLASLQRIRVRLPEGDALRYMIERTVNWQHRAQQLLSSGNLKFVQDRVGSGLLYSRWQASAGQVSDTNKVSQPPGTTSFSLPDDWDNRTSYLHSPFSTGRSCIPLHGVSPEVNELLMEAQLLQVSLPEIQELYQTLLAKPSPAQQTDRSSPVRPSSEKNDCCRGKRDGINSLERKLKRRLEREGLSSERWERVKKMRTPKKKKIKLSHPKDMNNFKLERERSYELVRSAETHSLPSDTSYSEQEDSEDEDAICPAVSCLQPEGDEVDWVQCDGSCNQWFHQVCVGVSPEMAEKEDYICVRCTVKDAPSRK

Row | Structure (SMILES) | Potency | activity change, negative = inhibition
1 | CN(Cc1ccco1)C(=O)CSc1nc(-c2cccs2)nc2ccccc12 | inconclusive: 39.8 µM [inhibitor, partial curve, poor fit] | –
2 | CSc1cccc(NC(=O)Cn2c3ncccc3c(=O)n2-c2ccc(C)cc2)c1 | inconclusive: 31.6 µM [inhibitor, partial curve, poor fit] | –
3 | CN1CCN(c2cc(=O)c3ccnc(-c4ccc(Cl)cc4)c3o2)CC1 | active: 35.5 µM | –
4 | O=C(NCc1csc(-c2cnccn2)n1)C(c1cccnc1)N1CCOCC1 (stereo not drawn) | inconclusive: 35.5 µM [inhibitor, partial curve, poor fit] | –
5 | COCCCNc1nc(-c2cccnc2)nc2c1CNC2 | inconclusive: 35.5 µM [inhibitor, partial curve, poor fit] | –
6 | O=C(NC1COC1)c1ccc2c(c1)C1(CCN(CC3CC3)C1)CN2Cc1ccccc1 (stereo not drawn) | active: 35.5 µM | –
7 | Cn1c(=O)c2c(O)c([N+](=O)[O-])c(=O)n(C)c2n(C)c1=O | inconclusive: 39.8 µM [inhibitor, single point] | –
8 | COc1ccccc1CNC(=O)c1ccc(N2CCCC2)c(NC(=O)NCCC(C)C)c1 | – | inconclusive: -32.9% [inhibitor]
9 | Cc1ccc(C)c(CN2C(=O)c3ccccc3S(=O)(=O)c3ccc(C(=O)N4CCCCCC4)cc32)c1 | inconclusive: 15.8 µM [inhibitor, partial curve, poor fit] | –
10 | O=C([C@@H]1C[C@H](Oc2ccccc2)CN1C(=O)CN1CCCCCC1)N1CCCC1 | inconclusive: 22.4 µM [inhibitor, partial curve, poor fit] | –
11 | CC(=O)Nc1ccc(C2Sc3ccccc3NC3=C2C(=O)c2ccccc23)cc1 (stereo not drawn) | inconclusive: 35.5 µM [inhibitor, single point] | –
12 | O=C(Nc1ccc(Cl)cc1)N1CCc2nc(C3CC3)nc(-c3ccc(Cl)cc3)c2C1 | inconclusive: 28.2 µM [inhibitor, partial curve, poor fit] | –
13 | C=CCOc1ccc(/C=C2\N=C(SC)SC2=O)cc1 | inactive | –
14 | Cc1cc(N2CCN(S(=O)(=O)c3ccc(Cl)cc3C(F)(F)F)CC2)nc(C(C)C)n1 | inactive | –
15 | Nc1ncccc1C(=O)OCC(=O)NC1CCCCCC1 | inconclusive: 28.2 µM [inhibitor, partial curve, poor fit] | –
16 | COc1ccc(-c2nc(-c3c(C)noc3C)cc3c2cc(-c2ccccc2)n3C)cn1 | active: 28.2 µM | –
17 | CC(C)(C)C(=O)N1N=C(c2cccs2)CC1c1ccc2nccnc2c1 (stereo not drawn) | inactive | –
18 | Cc1cccc(-n2c3nc(=O)[nH]c(=O)c-3cc3c(Cl)cccc32)c1C | inconclusive: 28.2 µM [inhibitor, partial curve, poor fit] | –
19 | Cc1nn(Cc2cccc(C(F)(F)F)c2)c(C)c1NS(=O)(=O)c1c(C)nn(C(F)F)c1C | inactive | –
20 | O=C(c1ccc(Oc2ccccc2)cc1)N1CCNc2cnc(Nc3cccc(C(F)(F)F)c3)nc2C1 | inconclusive: 2.82 µM [inhibitor, full curve, poor fit] | –
21 | COC(=O)CNC(=O)c1cccc(C)c1 | inactive | –
22 | COC(=O)c1c(NC(C)=O)c2cc(NC(C)CC(C)(C)O)cnc2n1CCc1ccc(OC)cc1 (stereo not drawn) | inconclusive: 11.2 µM [inhibitor, single point] | –
23 | CCOc1cccc2cc(-c3nc4ccc(C(=O)O)cc4[nH]3)c(=O)oc12 | inconclusive: 2 µM [inhibitor, partial curve, poor fit] | –

Row | Structure (SMILES) | Potency | activity change, negative = inhibition
24 | Fc1ccc(C2=Nc3ccc(Cl)cc3NC(c3cccs3)=N2)cc1 | inactive | –
25 | COc1cc(OC)c(OC)cc1/C=C1\N=C(SC)SC1=O | inactive | –
26 | c1cc(-c2noc([C@@H]3CCCN3C3CCC3)n2)cc(N2CCOCC2)n1 | active: 35.5 µM | –
27 | CC1(C(=O)NC2CCOCC2)CN(Cc2ccccc2)Cc2ccc(Nc3ccccc3)nc21 (stereo not drawn) | active: 28.2 µM | –
28 | Cc1ccccc1S(=O)(=O)Cc1ccc(C(=O)NC2CCCCC2)o1 | inconclusive: 15.8 µM [inhibitor, partial curve, poor fit] | –
29 | CCOc1ccc(NS(=O)(=O)c2ccc3[nH]cc(C(=O)N(C)Cc4ccccc4)c(=O)c3c2)cc1 | – | inconclusive: -30.2% [inhibitor]
30 | COc1cc(-c2cnc3n[nH]c(-c4ccc(F)cc4C)c3n2)ccn1 | inconclusive: 39.8 µM [inhibitor, single point] | –
31 | Cc1cccc2c(C(=O)NC3CC3)cc(-c3cccnc3)nc12 | inactive | –
32 | Cc1ccc(OC(=O)c2cc(-c3ccc4c(c3)OCCO4)on2)cc1C | inconclusive: 15.8 µM [inhibitor, single point] | –
33 | O=C(Cn1cnc([N+](=O)[O-])n1)c1ccc(O)c(O)c1 | inconclusive: 28.2 µM [inhibitor, partial curve, poor fit] | –
34 | COc1ccc(C(=O)NCc2cccc(OC)c2)cc1 | inactive | –
35 | CCN(CC)S(=O)(=O)c1ccc(C(=O)Nc2nc3c(Cl)cc(Cl)cc3s2)cc1 | inconclusive: 1.58 µM [inhibitor, partial curve, poor fit] | –
36 | CCN(Cc1cc2ccccc2[nH]c1=O)S(=O)(=O)c1ccc(C)cc1 | inactive | –
37 | Cc1cc(NC2CC(C)(C)NC(C)(C)C2)nc(C(C)C)n1 | inactive | –
38 | Cn1ncc(N2CCC(C(=O)NCC3CCN(Cc4cccc(F)c4)CC3)C2)cc1=O (stereo not drawn) | inactive | –
39 | CCOC(=O)c1ccc(NC(=O)COCc2cc(-c3ccc4c(c3)OCO4)on2)cc1 | inconclusive: 28.2 µM [inhibitor, single point] | –
40 | O=C(c1ccc(NCc2ccncc2)cc1)N1CCCC2(CCNCC2)CC1 | inconclusive: 20 µM [inhibitor, partial curve, poor fit] | –
41 | c1cncc(-c2cc(-c3ccc4cn[nH]c4c3)cn3cncc23)c1 | active: 35.5 µM | –
42 | CSc1ccc(CNc2ncc(-c3ccccc3)n2C)cc1 | inconclusive: 10 µM [inhibitor, partial curve, poor fit] | –
43 | Cc1cccc(-c2nc(C#N)c(NCc3ccc4c(c3)OCO4)o2)c1 | inconclusive: 31.6 µM [inhibitor, partial curve, poor fit] | –
44 | CCn1c2c(c(=O)n1-c1ccccc1)CCN(Cc1cccnc1OC)C2 | inconclusive: 35.5 µM [inhibitor, single point] | –
45 | Cc1cccc(OC(=O)c2cc(-c3ccc4c(c3)OCCO4)on2)c1 | inconclusive: 35.5 µM [inhibitor, partial curve, poor fit] | –
46 | Cc1cc(C(=O)NCC2Cn3cccc3CN2C)nn1C (stereo not drawn) | active: 25.1 µM | –

Row | Structure (SMILES) | Potency | activity change, negative = inhibition
47 | CCOC(=O)CNC(=O)N1CCc2cc(S(=O)(=O)N3CCC(C)CC3)ccc21 | inconclusive: 28.2 µM [inhibitor, single point] | –
48 | CC(C)OC(=O)CCNC(=O)c1ccccc1-c1ncc(-c2ccccc2)o1 | inconclusive: 28.2 µM [inhibitor, partial curve, poor fit] | –
49 | O=C(c1ccc(Cl)cc1)N1CCN(C(=O)c2nnn3c2COC(c2ccccc2)C3)CC1 (stereo not drawn) | inactive | –
50 | COCC[C@]1(O)CCN(C(=O)CCc2nc(-c3ccco3)no2)C[C@H]1C | inactive | –
51 | CCCSc1ncc(Cl)c(C(=O)N(Cc2ccc(N(C)C)cc2)C2CCS(=O)(=O)C2)n1 (stereo not drawn) | – | inconclusive: -56.5% [inhibitor]
52 | C=C(Cl)CN1CCN(CC2CCCO2)CC1 (stereo not drawn) | inactive | –
53 | O=C(c1ccccc1F)N1CCc2nc(-c3ccc(Cl)cc3)nc(-c3ccccc3)c2C1 | inactive | –
54 | Cc1ccc(C2=NN(C(=O)CNc3ccc(C(=O)N(C)C)cc3)C(c3ccco3)C2)cc1 (stereo not drawn) | inactive | –
55 | Cc1cccc(NC(=O)C2(C#N)C(c3ccccc3)C2(C)C(=O)c2ccccc2)c1 (stereo not drawn) | inactive | –
56 | O=C(Cc1c[nH]c2ncc(-c3ccccc3Oc3ccccc3)cc12)NCc1cccnc1 | inconclusive: 35.5 µM [inhibitor, partial curve] | –
57 | CN1CCN(c2oc(-c3ccc(COc4ccc(Cl)cc4)o3)nc2C#N)CC1 | inconclusive: 35.5 µM [inhibitor, partial curve, poor fit] | –
58 | N#Cc1nc(-c2ccc(COc3ccccc3)o2)oc1NCc1ccccc1 | inconclusive: 5.62 µM [inhibitor, partial curve, poor fit] | –
59 | Fc1ccc(C=Nc2cccc3c(N=Cc4ccc(F)cc4)cccc23)cc1 | inconclusive: 1.78 µM [inhibitor, partial curve, poor fit] | –
60 | COC(=O)CNC(=O)c1cc(-c2ccco2)nc2ccccc12 | inconclusive: 22.4 µM [inhibitor, partial curve, poor fit] | –
61 | Nc1ccc([N+](=O)[O-])cc1NS(=O)(=O)c1ccc2ccccc2c1 | inactive | –
62 | COc1cc(NC(=O)COc2coc(CN3CCSCC3)cc2=O)cc(OC)c1 | inactive | –
63 | c1ccc2sc(-c3cc(NCCN4CCOCC4)nc4ccccc34)nc2c1 | inconclusive: 20 µM [inhibitor, partial curve, poor fit] | –
64 | Cn1c(CNC(=O)CN2CC3CC(C2)[C@H]2CCCC(=O)N2C3)nc2ccccc21 (stereo partly drawn) | inconclusive: 4.47 µM [inhibitor, partial curve, poor fit] | –
65 | CCCOC(=O)c1c(NC(=O)C2c3ccccc3Oc3ccccc32)sc2c1CCC(C)C2 (stereo not drawn) | inconclusive: 25.1 µM [inhibitor, partial curve, poor fit] | –
66 | CC1CCN(C(=O)C2CCN(C(=O)c3ccc4cc[nH]c4c3)CC2)CC1 | inconclusive: 31.6 µM [inhibitor, single point] | –
67 | O=C1NC2(CCCN(Cc3ccc(F)cc3)C2)COc2ccccc21 (stereo not drawn) | active: 25.1 µM | –
68 | O=C(Nc1ccccc1F)c1ccc2c(c1)n(Cc1ccccc1)c(=O)c1ccnn12 | active: 31.6 µM | –
